# From PMC6919601, “Identification of Plasmodium dipeptidyl aminopeptidase allosteric inhibitors by high throughput screening” (PLoS ONE, 2019)
# Hit rate of the full screen: of about 110,000 compounds, about 230 (0.21%) showed an effect of 50% or more. Some of the results follow.
# Molecular target: DPAP1 (Plasmodium falciparum, UniProt Q8IIJ9)
# Test: primary screen, percent inhibition; read by cleavage of a fluorogenic dipeptide substrate; higher = more effect of the substance
# Design: species or system P. falciparum D10 trophozoite lysates; single well
# 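Further: 30 min substrate incubation versus DMSO and 10 µM JCP410 controls.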
# DPAP1, sequence (Q8IIJ9 whole entry, looked up): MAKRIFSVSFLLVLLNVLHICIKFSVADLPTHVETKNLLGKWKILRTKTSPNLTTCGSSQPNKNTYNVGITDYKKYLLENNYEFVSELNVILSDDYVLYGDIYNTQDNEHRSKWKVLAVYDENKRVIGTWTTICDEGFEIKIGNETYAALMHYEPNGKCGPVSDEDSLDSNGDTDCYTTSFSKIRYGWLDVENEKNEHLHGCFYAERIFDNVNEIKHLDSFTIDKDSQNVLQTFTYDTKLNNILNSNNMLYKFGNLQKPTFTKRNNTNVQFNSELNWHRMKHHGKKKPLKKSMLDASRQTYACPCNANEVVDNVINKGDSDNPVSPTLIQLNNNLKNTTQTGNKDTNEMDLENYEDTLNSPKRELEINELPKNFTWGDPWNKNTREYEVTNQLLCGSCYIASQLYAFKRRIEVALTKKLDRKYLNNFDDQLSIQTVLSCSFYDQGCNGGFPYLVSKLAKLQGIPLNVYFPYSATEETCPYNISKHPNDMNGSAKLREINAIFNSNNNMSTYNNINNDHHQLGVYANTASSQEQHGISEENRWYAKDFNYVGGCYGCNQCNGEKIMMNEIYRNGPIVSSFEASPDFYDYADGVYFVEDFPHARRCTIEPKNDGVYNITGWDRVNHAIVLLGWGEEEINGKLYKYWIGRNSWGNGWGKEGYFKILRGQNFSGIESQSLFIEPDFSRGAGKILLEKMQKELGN
row,SMILES,% Inhibition @ 10 uM
1,COc1ccc(CC(C)NCCC2=CCCCC2)cc1 (stereo not shown),-8.55%
2,CCN1CCN(S(=O)(=O)c2ccc(OCCC(C)C)c(C(N)=O)c2)CC1,0.776%
3,CCOc1ccc2nc(NC(=O)CC(C)C)sc2c1,4.44%
4,CCCN1CCC(NCCc2ccc(F)cc2)CC1,-4.37%
5,COc1cccc(NC(=O)c2ccc(N(Cc3ccc(Cl)cc3)S(C)(=O)=O)cc2)c1,-0.088%
6,Cc1ccc(C(=O)C2=C(O)C(=O)N(CC3CCCO3)C2c2ccc(Br)cc2)cc1 (stereo not shown),0.161%
7,CCN(CC)CCCN(C)C(=O)Cn1nc(Cc2ccncc2)c2ccccc2c1=O,9.33%
8,CC(C)NC(=O)Cn1cnc2onc(-c3ccc(F)cc3)c2c1=O,-6.88%
9,CCOC(=O)c1cc(-c2cccs2)no1,21.9%
10,COCCNC(=O)C1CCCN(S(C)(=O)=O)C1 (stereo not shown),-4.83%
11,COc1ccc(CCNC(=O)CSc2nnc3c4ccccc4n(C(C)C)c3n2)cc1OC,-0.834%
12,CCN(CC)S(=O)(=O)c1ccc(NC(=O)c2cccc(C)c2)cc1,3.13%
13,O=C(Nc1ccc(F)c(Cl)c1)c1cc2nc(C(F)F)cc(C(F)F)n2n1,-8.02%
14,CCCCN(C(=O)c1ccc(Cl)cc1)C1CC2CCC(C1)N2C (stereo not shown),4.37%
15,CCCc1cc(O)n2nc(NC(=O)c3ccc(F)cc3)nc2n1,0.401%
16,O=C(c1ccco1)N1CCN(Cc2ccccc2F)CC1,-0.641%
17,COc1cccc(NC(=O)c2cc(-c3cccs3)nc3ccccc23)c1,1.72%
18,CC[C@@H](C)[C@H](NC(=O)CCC(=O)OC)C(=O)N[C@@H](CCc1ccccc1)C(=O)CO,-6.56%
19,Fc1ccc(CNC23CN4CN(CN(C4)C2)C3)cc1,8.38%
20,C=Cc1ccc(Cn2c(C(=O)O)c(CNCCc3ccccc3OC)c3ccc(C)cc32)cc1,3.13%
21,Cc1cc(/N=C/N(C)C)c2ccccc2n1,0.266%
22,CC1CCN(C(=O)Nc2cccc(NC(=O)N3CCC(C)CC3)c2)CC1,-0.67%
23,Cc1ccc(C(=O)N/C(=C\c2ccco2)C(=O)N2CCc3ccccc3C2)cc1C,-2.24%
24,CC(C(=O)O)n1nc(-c2ccccc2)c2ccccc21 (stereo not shown),3.24%
25,CC(C)c1ccc(NC(=O)c2ccc3c(c2)C(=O)N(Cc2cccnc2)C3=O)cc1,6.26%
26,Cc1cc(C)n2nc(NCc3c(F)cccc3Cl)nc2n1,-0.671%

row,SMILES,% Inhibition @ 10 uM
1,CN(C)CCN(C)Cc1cccc(Cl)c1Cl,-0.351%
2,Cc1ccccc1S(=O)(=O)Cc1ccc(C(=O)N2CCN(C)CC2)o1,1.93%
3,Cc1[nH]cnc1CN1CC=C(c2ccc(F)cc2)CC1,-5.73%
4,O=C(NCc1cn2ccsc2n1)c1cccc(Cl)c1,2.57%
5,CCOc1ccc(C(=O)Nc2ccccc2C)cc1,0.147%
6,Cc1ccc(-n2ncc3c(O)nc(SCC(=O)N4CCCCC4)nc32)cc1C,-0.00718%
7,CS(=O)(=O)N1CCc2cc(C(=O)Nc3ccccc3)ccc21,3.57%
8,O=C(O)c1sc2cc(Cl)ccc2c1Cl,-1.54%
9,N=C1S/C(=C\c2c[nH]nc2-c2ccccc2)C(=O)N1c1nccs1,11.2%
10,COc1ccc(C2C(C#N)=C(N)N(c3nc[nH]n3)C3=C2C(=O)CC(C)(C)C3)cc1 (stereo not shown),0.726%
11,CCCCc1ccc(-c2csc(/C(C#N)=C\C=C\c3ccccc3)n2)cc1,-1.25%
12,CN(C)c1nc(N)nc(COc2ccc(C3CCCCC3)cc2)n1,-5.96%
13,CN1CCN(C(=O)c2ccccc2NC(=O)c2ccccc2)CC1,1.08%
14,Cc1ccccc1Nc1ccccc1C(=O)N1CCCCC1,-3.39%
15,O=C1/C(=C/c2ccncc2)N2CCC1CC2,-3.79%
16,Nc1c2c(nc3ccc(Br)cc13)N(C1CCCCC1)CC2,-6.06%
17,COc1ccc(CCNC2CC(=O)N(c3ccc(OC)cc3)C2=O)cc1 (stereo not shown),0.163%
18,O=C(NC(=S)N1CCCCCC1)c1cccnc1,-4.96%
19,OCC1CCCCN1Cc1cccc(F)c1 (stereo not shown),-2.58%
20,CC(C)(C)c1ccc(O)c(CNC2CCCCC2)c1,-6.42%
21,Cc1cc(C(F)F)n2nc(C(=O)NCc3ccccc3F)nc2n1,-0.958%
22,Cc1ccc(C)c2c3c([nH]c12)-c1nonc1CC3,-5.92%
23,Cn1c(SCC(N)=O)nc2c(oc3ccccc32)c1=O,-3%
24,COc1cc(-c2noc(CN3CCCCC3C)n2)cc(OC)c1OC (stereo not shown),4.28%
25,CCOC(=O)c1sc(NC(=O)COc2ccc(Cl)cc2)nc1C,-6.86%
26,O=[N+]([O-])c1ccc(S(=O)(=O)N2CCOCC2)cc1,-0.0372%

row,SMILES,% Inhibition @ 10 uM
1,C=CCC(C)(CC=C)NS(=O)(=O)c1ccc(NC(C)=O)cc1,-10.2%
2,Cc1nc2cc(S(=O)(=O)N3CCC(C(=O)NCCc4ccccc4)CC3)ccc2n1C1CCCC1,-3.53%
3,CCN(CC)C(=O)C1=C(C)N=C(S)NC1c1ccccc1OC (stereo not shown),-4.35%
4,CCN1CCCC1CNC(=O)c1[nH]c2ccccc2c1Sc1ccccc1 (stereo not shown),-4.43%
5,Cc1cc(Cl)ccc1OCCCC(=O)Nc1cccnc1,-5.19%
6,Cc1cc2ccccc2n1CCNC(=O)Cc1cccc2ccccc12,1.39%
7,CN1CCN(C(=O)COc2ccc(Cl)cc2Cl)CC1,-1.07%
8,O=C(c1ccc2c(c1)OCO2)N1CCN(CCN2C(=O)c3cccc4cccc(c34)C2=O)CC1,-5.31%
9,COc1ccc(-c2cc(C(=O)Nc3cccnc3Cl)no2)cc1,-4.07%
10,COC(=O)c1ccc(-c2ccco2)n1CC(=O)O,3.24%
11,COc1ccccc1S(=O)(=O)Cc1ccc(C(=O)NCCc2ccc(Cl)cc2)o1,-3.09%
12,CCOC(=O)c1c(N)sc(C)c1C,-3.92%
13,COc1ccc(-c2cc(C(=O)Nc3ccccn3)c3ccccc3n2)cc1OC,2.06%
14,O=C1c2oc3ccccc3c(=O)c2C(c2ccc(F)cc2)N1c1nncs1 (stereo not shown),2.1%
15,Cc1cccn2cc(CNS(=O)(=O)c3ccc(Br)cc3)nc12,-3.51%
16,CCc1ccc2nc(N(CCN(C)C)C(=O)c3ccc(Cl)s3)sc2c1,-12.3%
17,O=C1NC(=S)S/C1=C\c1ccc(-c2ccc(Br)cc2)o1,-6.22%
18,CCOc1ccccc1/C=C1\C(=O)N(Cc2ccccc2)C(C)=C1C(=O)OC,0.131%
19,CCOc1ccccc1C(=O)Nc1ccc(C)cc1,-8.95%
20,Oc1nc(Cn2nnc(-c3ccccc3Cl)n2)nc2ccccc12,-5.72%
21,Oc1cc(O)c2sc3nc(-c4cccnc4)cc(C(F)(F)F)c3c2n1,4.97%
22,Cc1ccc(S(=O)(=O)N(Cc2ccc([N+](=O)[O-])cc2)C(C)(C)C)cc1,-5.5%
23,O=C(NCCCc1ccccc1)C1CCCN(S(=O)(=O)N2CCOCC2)C1 (stereo not shown),-5.34%
24,COc1ccc(-c2nnc(C3CCN(S(=O)(=O)c4ccc(F)c(C)c4)CC3)o2)cc1,-1.08%
25,CCOc1ccccc1NC(=O)CN(c1ccc(Cl)cc1C)S(C)(=O)=O,1.92%
26,CCOc1ccccc1CN1CCC(Cc2ccccc2)CC1,-6.47%

row,SMILES,% Inhibition @ 10 uM
1,CCN(CC)C(=O)c1sc(NC(=O)c2ccncc2)c(C(=O)OC)c1C,-1.19%
2,COc1ccc(-c2ncc(-c3ccccc3)o2)cc1,2.65%
3,Cc1nn(C2CCCCC2)c(N)c1-c1ccccc1,0.392%
4,COc1cccc2sc(N(CCCN(C)C)C(=O)c3ccc(C(C)=O)cc3)nc12,8.99%
5,CC(C)c1ccccc1OCCCCNC(C)(C)C,-3.38%
6,Cc1ccccc1Cn1ccc(NC(=O)COCc2cc(-c3ccc4c(c3)OCO4)on2)n1,1.05%
7,COc1cccc(-c2cn3nc(C4CC4)sc3n2)c1,-4.54%
8,Cc1ccc(N2C(=O)CC(NCc3ccccc3)C2=O)cc1 (stereo not shown),4.22%
9,Cc1ccc(Cn2nnc3sc4c(c3c2=O)CCCC4)cc1,-2.98%
10,Cc1ccc(S(=O)(=O)N2C[C@@H](c3ccccc3)O[C@@H](c3ccccc3)C2)cc1,-1.38%
11,Cc1nc(C(=O)Nc2nnc(-c3ccccc3)s2)cc2c1[nH]c1ccccc12,1.96%
12,O=C(O)c1ncccc1C(=O)N1CCN(c2ccccc2F)CC1,-1.45%
13,CCc1ccc(C2C(C#N)=C(N)Oc3[nH]nc(-c4ccccc4)c32)cc1 (stereo not shown),-1.64%
14,CC(c1ccccc1)C1C(C#N)=C(N)OC2=C1C(=O)CC(C)(C)C2 (stereo not shown),-3.46%
15,COc1ccc(S(=O)(=O)Nc2ccc(C(C)=O)cc2)cc1,2.64%
16,Cc1ccc2c(CNC3CCC(C)CC3)c(C(=O)O)n(Cc3ccc(F)cc3)c2c1 (stereo not shown),1.26%
17,Cc1ccc2c(c1)-c1c(cnn1CC(=O)N(Cc1ccco1)C1CCCCC1)CO2,-8.02%
18,COc1ccc(OC)c(C2NC(S)=NC(C)=C2C(=O)Nc2ccccn2)c1 (stereo not shown),3.06%
19,Nc1c(C(=O)c2ccc(F)cc2)oc2ccccc12,4.08%
20,CC1CCN(c2ccc3nnc(CCC(=O)NCc4ccc5c(c4)OCO5)n3n2)CC1,-11%
21,COc1ccc2c(c1)OC1(C)CC2C(S(=O)(=O)c2ccc(C(C)C)cc2)C(=O)N1C (stereo not shown),-0.72%
22,O=C1c2cccnc2C(=O)N1Cc1ccc(F)cc1S(=O)(=O)NC1CCCCCC1,2.48%
23,Cc1nc(CC(=O)Nc2ccc(Br)cc2)cs1,5.03%
24,Cc1cccc(NS(=O)(=O)c2ccc(Cl)cc2)c1,-3.65%
25,O=C1N=C(N2CCCCC2)S/C1=C\c1cccs1,-3.26%
